The labels stand for the following.
T1: recombinant human TGF-beta RIII (R&D Systems, 242-R3-100) (human, UniProt Q03167 21-781)
T1 construct: also called TGFβ R3; TGFBR3
T1 sequence (looked up): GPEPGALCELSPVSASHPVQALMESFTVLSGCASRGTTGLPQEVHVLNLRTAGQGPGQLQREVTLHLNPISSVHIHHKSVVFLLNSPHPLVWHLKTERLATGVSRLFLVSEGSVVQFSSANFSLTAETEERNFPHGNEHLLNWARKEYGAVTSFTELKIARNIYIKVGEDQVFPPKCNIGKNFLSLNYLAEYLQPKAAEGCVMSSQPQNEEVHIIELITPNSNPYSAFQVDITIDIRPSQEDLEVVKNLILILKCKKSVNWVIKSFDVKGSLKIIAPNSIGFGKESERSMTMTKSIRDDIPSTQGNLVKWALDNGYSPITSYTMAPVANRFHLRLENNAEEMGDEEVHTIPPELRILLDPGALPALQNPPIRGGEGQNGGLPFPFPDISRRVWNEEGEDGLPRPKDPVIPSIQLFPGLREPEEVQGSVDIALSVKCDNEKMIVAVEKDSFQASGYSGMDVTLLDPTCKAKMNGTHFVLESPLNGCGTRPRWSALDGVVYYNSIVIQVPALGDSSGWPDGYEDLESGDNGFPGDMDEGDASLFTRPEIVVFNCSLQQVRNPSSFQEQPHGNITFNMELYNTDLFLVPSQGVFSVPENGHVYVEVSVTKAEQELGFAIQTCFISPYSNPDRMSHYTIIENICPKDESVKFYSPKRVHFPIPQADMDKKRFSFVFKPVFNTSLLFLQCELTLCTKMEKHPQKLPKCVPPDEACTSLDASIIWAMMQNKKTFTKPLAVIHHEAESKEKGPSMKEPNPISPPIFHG

T2: recombinant human VEGFR3 (R&D Systems, 349-F4) (human, UniProt P35916 25-776)
T2 sequence (looked up): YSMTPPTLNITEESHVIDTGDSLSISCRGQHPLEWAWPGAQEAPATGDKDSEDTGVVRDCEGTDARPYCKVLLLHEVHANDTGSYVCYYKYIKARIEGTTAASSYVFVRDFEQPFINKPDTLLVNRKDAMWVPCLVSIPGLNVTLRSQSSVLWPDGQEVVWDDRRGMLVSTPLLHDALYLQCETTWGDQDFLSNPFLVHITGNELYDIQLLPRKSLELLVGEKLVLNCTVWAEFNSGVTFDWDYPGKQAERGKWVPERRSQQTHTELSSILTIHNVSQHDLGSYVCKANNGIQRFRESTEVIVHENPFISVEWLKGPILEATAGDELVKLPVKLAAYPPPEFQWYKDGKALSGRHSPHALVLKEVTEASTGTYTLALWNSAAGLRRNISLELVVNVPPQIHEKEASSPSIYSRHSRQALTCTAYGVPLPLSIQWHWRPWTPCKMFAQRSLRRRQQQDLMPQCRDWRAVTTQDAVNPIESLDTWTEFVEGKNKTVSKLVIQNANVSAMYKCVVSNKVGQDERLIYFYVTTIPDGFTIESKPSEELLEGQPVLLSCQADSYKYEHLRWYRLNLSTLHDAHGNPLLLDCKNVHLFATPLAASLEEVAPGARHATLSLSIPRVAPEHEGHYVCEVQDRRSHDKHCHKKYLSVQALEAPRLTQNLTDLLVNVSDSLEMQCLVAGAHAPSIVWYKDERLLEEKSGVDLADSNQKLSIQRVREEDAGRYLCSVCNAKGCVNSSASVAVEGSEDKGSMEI

B1: human Galectin-3 (Gal3), full-length recombinant (ligand)
chain: not shown
notes: treated here as one molecule; also called hGAL3; hGal3
B2: recombinant human CTLA4 (R&D Systems, 7268-CT) (receptor)
chain: not shown
notes: Detected with anti-human IgG; also called hCTLA4
B3: recombinant human PDL1 (R&D Systems 156-B7) (ligand)
chain: not shown
notes: Detected with anti-human IgG; also called hPDL1

For test [1], the target named is T1, recombinant human TGF-beta RIII (R&D …). Kind of test: ELISA: Gal3 coated at 3 µg/ml, receptor at 3 µg/ml, anti-human IgG-HRP, A450.
Test [2] concerns the target T3, recombinant human HGFR (cMet) (R&D Systems, 8614-MT) (human, UniProt P08581 25-932).
T3 construct: Detected with anti-human IgG
Kind of test: ELISA: Gal3 coated at 2 or 3 µg/ml, protein at 2 or 3 µg/ml, anti-human IgG-HRP, A450.

The target of test [3] is T4, recombinant human VEGFR1 (R&D Systems, 321-FL/CF) (human, UniProt P17948-2 27-687, limits assumed).
T4 construct: Detected with anti-human IgG
Kind of test: ELISA: Gal3 coated at 2 or 3 µg/ml, receptor at 2 or 3 µg/ml, anti-human IgG-HRP, A450.

Test [4] has as its target T5, recombinant human FGFR4 (R&D Systems, 685-FR) (human, UniProt P22455 22-369).
T5 construct: Detected with anti-human IgG; also called hFGFR4
The test is described as above.

Test [5] has as its target recombinant human EGFR (R&D Systems, 344-ER) (human, UniProt P00533 in part). Description: Gator biosensor kinetics (text: SPR), rhEGFR/hFc captured on hFc probes, rhGal3-His as analyte, 1:1 fit.
Test [6] has as its target T6, recombinant human Her2 (R&D Systems, 1129-ER) (human, UniProt P04626 in part).
T6 construct: also called ErbB2
Description: Gator biosensor kinetics (text: SPR), rhErbB2/hFc captured on hFc probes, rhGal3-His as analyte, 1:1 fit.

The target of test [7] is T7, recombinant human PDGFRa (R&D Systems, 6765-PR) (human, UniProt P16234 24-524).
T7 construct: also called PDGF R alpha; PDGFR alpha
Kind of test: Gator biosensor kinetics (text: SPR), rhPDGFRα/hFc captured on hFc probes, rhGal3-His as analyte, 1:1 fit.

For test [8], the target named is T8, recombinant human PDGFRb (R&D Systems, 385-PR/CF) (human, UniProt P09619 33-530).
T8 construct: also called PDGF R beta; PDGFR beta
Description: Gator biosensor kinetics (text: SPR), rhPDGFRβ/hFc captured on hFc probes, rhGal3-His as analyte, 1:1 fit.

Test [9] addresses recombinant human VEGFR2 (R&D Systems, 357-KD/CF) (human, UniProt P35968 20-764). Description: Gator biosensor kinetics (text: SPR), rhVEGFR2/hFc captured on hFc probes, rhGal3-His as analyte, 1:1 fit.
For test [10], the target named is T2, recombinant human VEGFR3 (R&D Systems, …). Description: Gator biosensor kinetics (text: SPR), rhVEGFR3/hFc captured on hFc probes, rhGal3-His as analyte, 1:1 fit.
Test [11] has as its target T9, human Toll-like Receptor 4 (PeproTech, 160-06) (human, UniProt O00206 in part).
T9 construct: Biotinylated; also called TLR4
Description: ELISA: Gal3 coated, biotinylated TLR4 detected with avidin-HRP; concentrations of the bars not printed on the sheet.

For another test, the target named is T10, Abeta (1-42) peptide (human).
T10 construct: also called Aβ42 peptide; Aβ-42 peptide
Description: ELISA: Gal3 coated, biotinylated Abeta (1-42) peptide detected with avidin-HRP; concentrations of the bars not printed on the sheet.

A further test addresses T11, Abeta (1-42) oligomer (human).
T11 construct: also called Aβ42 oligomer; Abeta oligomer
Kind of test: ELISA: Gal3 coated, biotinylated Abeta (1-42) oligomer detected with avidin-HRP; concentrations of the bars not printed on the sheet.

The target in test [12] is B1. Kind of test: ELISA: Gal3 coated at 2 or 3 µg/ml, protein at 2 or 3 µg/ml, anti-human IgG-HRP, A450.

T7 sequence (P16234 24-524 limits assumed): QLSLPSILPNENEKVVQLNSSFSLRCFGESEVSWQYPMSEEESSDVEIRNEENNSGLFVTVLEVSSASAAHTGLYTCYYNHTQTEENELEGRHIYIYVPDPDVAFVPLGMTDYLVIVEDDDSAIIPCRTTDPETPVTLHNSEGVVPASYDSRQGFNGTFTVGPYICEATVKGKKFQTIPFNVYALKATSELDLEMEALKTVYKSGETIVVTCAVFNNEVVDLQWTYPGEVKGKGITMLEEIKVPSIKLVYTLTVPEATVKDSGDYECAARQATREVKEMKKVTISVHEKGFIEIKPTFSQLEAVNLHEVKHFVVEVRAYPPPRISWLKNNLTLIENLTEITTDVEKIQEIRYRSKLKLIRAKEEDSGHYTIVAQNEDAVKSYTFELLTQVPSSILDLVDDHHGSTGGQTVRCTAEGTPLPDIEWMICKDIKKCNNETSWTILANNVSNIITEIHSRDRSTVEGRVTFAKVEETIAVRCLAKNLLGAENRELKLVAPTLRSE
UniProt P35968, sequence (P35968 20-764 limits assumed): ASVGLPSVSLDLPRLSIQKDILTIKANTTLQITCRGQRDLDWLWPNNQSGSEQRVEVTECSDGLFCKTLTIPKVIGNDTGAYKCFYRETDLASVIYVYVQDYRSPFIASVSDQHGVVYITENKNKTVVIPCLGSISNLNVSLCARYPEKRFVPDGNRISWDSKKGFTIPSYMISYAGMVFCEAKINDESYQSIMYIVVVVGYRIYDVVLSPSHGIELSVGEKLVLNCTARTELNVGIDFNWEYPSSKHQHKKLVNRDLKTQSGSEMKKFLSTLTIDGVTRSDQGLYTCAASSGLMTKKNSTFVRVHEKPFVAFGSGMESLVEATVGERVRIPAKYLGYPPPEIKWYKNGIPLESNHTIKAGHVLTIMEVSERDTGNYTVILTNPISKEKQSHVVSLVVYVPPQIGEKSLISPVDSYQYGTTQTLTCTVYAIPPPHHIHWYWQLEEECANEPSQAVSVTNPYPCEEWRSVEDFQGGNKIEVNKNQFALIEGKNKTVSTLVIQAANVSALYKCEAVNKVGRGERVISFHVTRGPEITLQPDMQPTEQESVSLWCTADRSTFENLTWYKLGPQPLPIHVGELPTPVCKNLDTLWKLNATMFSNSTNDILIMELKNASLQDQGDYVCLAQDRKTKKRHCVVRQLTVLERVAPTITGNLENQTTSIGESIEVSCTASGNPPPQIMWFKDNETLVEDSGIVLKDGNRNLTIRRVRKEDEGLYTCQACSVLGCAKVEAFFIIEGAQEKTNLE
T8 sequence (P09619 33-530 limits assumed): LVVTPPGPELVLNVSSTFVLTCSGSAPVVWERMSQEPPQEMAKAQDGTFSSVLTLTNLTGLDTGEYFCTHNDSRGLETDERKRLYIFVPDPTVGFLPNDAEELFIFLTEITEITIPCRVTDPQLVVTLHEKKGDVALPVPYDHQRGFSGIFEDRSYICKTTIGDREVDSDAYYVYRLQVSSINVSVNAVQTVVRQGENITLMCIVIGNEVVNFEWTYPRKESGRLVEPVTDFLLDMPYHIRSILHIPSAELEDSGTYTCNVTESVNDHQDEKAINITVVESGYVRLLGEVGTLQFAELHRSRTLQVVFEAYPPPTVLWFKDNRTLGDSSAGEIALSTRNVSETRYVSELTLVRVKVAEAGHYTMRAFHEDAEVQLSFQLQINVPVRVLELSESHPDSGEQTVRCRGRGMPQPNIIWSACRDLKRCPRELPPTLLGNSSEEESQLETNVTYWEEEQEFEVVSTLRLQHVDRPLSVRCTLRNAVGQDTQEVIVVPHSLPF

Take B1: the binding result in test [1] is “no binding”; in [2], “binds”; in test [3], “no binding”; in test [4], “binds”; in test [11], “binds”; with Abeta (1-42) peptide, “binds”. For the same molecule, the binding result with Abeta (1-42) oligomer was “binds”. Further, the Kd is 958 µM in [5]; 3030 µM in test [6]; 936 µM in [7]; 832 µM in test [8]; 287 µM in [9]; 3.37 µM in test [10]. Further, the koff in test [5] is 0.0886 s⁻¹; in test [6], 0.125 s⁻¹; in test [7], 0.111 s⁻¹; in test [8] it was 0.0794 s⁻¹; in test [9], 0.0508 s⁻¹; in test [10], 0.0452 s⁻¹. In addition, the values for the kon in [7], in test [9] and in test [10] were 119 M⁻¹ s⁻¹, 177 M⁻¹ s⁻¹ and 13400 M⁻¹ s⁻¹, respectively.

On to B2, for which the binding result in [12] was “binds”.

Take B3: the binding result in test [12] was “binds”.
